Our source for the enrichment ratio values is a collection of fitness landscapes (doi:10.1126/science.1257360).

This is one part of the list. Some results are limits rather than exact numbers.

To fix the notation:
B1: PhoQ; a variant is named by its letters at X, in order, P23837 (parent)
chain: MKKLLRLFFPLSLRVRFLLATAAVVLVLSLAYGMVALIGYSVSFDKTTFRLLRGESNLFYTLAKWENNKLHVELPENIDKQSPTMTLIYDENGQLLWAQRDVPWLMKMIQPDWLKSNGFHEIEADVNDTSLLLSGDHSIQQQLQEVREDDDDAEMTHSVAVNVYPATSRMPKLTIVVVDTIPVELKSSYMVWSWFIYVLSANLLLVIPLLWVAAWWSLRPIEALAKEVRELEEHNRELLNPATTRELTSLVRNLNRLLKSERERYDKYRTTLTDLTHSLKTPLXXLQXXLRSLRSEKMSVSDAEPVMLEQISRISQQIGYYLHRASMRGGTLLSRELHPVAPLLDNLTSALNKVYQRKGVNISLDISPEISFVGEQNDFVEVMGNVLDNACKYCLEFVEISARQTDEHLYIVVEDDGPGIPLSKREVIFDRGQRVDTLRPGQGVGLAVAREITEQYEGKIVAGESMLGGARMEVIFGRQHSAPKDE

The assay covers variants of B1. Nature of the assay: enrichment ratio after two sorts for PhoP signalling (ratio (wild type AVST 3.29)); higher = more functional. As to conditions: with PhoP (E. coli).
With PTGK, the enrichment ratio is not above 0.25. The result for TVPF reads not above 0.25; that for MGVP, not above 0.25; that for RGYQ, not above 0.25. In the case of WRTN, the enrichment ratio is not above 0.25. In the case of QFSA it was not above 0.25; in that of EVHN, not above 0.25; in that of DEFR, not above 0.25. In the case of LLKH it was not above 0.25; in that of IYND, not above 0.25. The result for PWWI reads not above 0.25; that for RMKR, not above 0.25. Regarding AFLM, the enrichment ratio was found to be 4.13.

For the variant AKFC, the enrichment ratio is not above 0.25. Regarding ILSD, the enrichment ratio is not above 0.25. In the case of VNWR it was not above 0.25; in that of MTLA, 2.93; in that of GIVF, 5.84.

Consider SDPL, for which the enrichment ratio is not above 0.25. As to ERKI, the enrichment ratio was not above 0.25. As for NNSY, the enrichment ratio is not above 0.25. QVGS: the enrichment ratio was not above 0.25. The result for KKIA reads not above 0.25; that for VVVM, not above 0.25; that for NTTI, not above 0.25.

For the variant LGTT, the enrichment ratio was not above 0.25.

On to WECP, for which the enrichment ratio is not above 0.25. As for QMLG, the enrichment ratio was not above 0.25. For WADY, the enrichment ratio was not above 0.25. In the case of GPNI it was not above 0.25; in that of RMNG, not above 0.25. In the case of AELF it was 16.2; in that of MMHM, not above 0.25; in that of LKFL, 0.481. The result for KITT reads not above 0.25; that for TEDL, not above 0.25. As to REPF, the enrichment ratio was not above 0.25. The result for TKHQ reads not above 0.25.

Turning to WDLM, the enrichment ratio is not above 0.25. In the case of RTMI it was not above 0.25; in that of IYGF, not above 0.25; in that of LVGL, not above 0.25. The result for SKRM reads not above 0.25. The result for FKFE reads not above 0.25. Take FSPC: the enrichment ratio was not above 0.25.

SDVN: the enrichment ratio is not above 0.25. The result for LYNH reads not above 0.25; that for TCVD, not above 0.25.

In the case of THMI, the enrichment ratio turned out to be 26.1.

With EFGP, the enrichment ratio is not above 0.25. The result for REYN reads not above 0.25; that for KMFG, not above 0.25. In the case of YPNQ, the enrichment ratio was not above 0.25.

Turning to VTVT, the enrichment ratio is not above 0.25. The result for IDIK reads not above 0.25; that for QCGY, not above 0.25; that for ELTF, not above 0.25. As to VLLP, the enrichment ratio is not above 0.25.

In the case of AEFM, the enrichment ratio was 5.63. In the case of ATWD, the enrichment ratio was not above 0.25. The result for VEGQ reads not above 0.25; that for DNTH, not above 0.25; that for MALG, 7.23. The result for DTSP reads not above 0.25; that for MVVH, not above 0.25. Take VHRM: the enrichment ratio was not above 0.25. As to LEKG, the enrichment ratio is not above 0.25.

Consider EGMP, for which the enrichment ratio is not above 0.25. As to TERQ, the enrichment ratio is not above 0.25.

On to YCFQ, for which the enrichment ratio is not above 0.25. The result for HDIM reads not above 0.25; that for FYIF, not above 0.25; that for VAND, not above 0.25. In the case of IYYI it was not above 0.25; in that of YLPT, not above 0.25. The result for TLFF reads not above 0.25; that for YTAL, not above 0.25. Regarding YEND, the enrichment ratio is not above 0.25. As for YDFL, the enrichment ratio is not above 0.25. In the case of MPPT it was not above 0.25. Regarding KPFG, the enrichment ratio was not above 0.25.

In the case of RAFQ, the enrichment ratio was not above 0.25. In the case of QPGY it was not above 0.25; in that of LTVV, not above 0.25. The result for STDP reads not above 0.25; that for GIST, 8.78; that for YRGT, not above 0.25. As to SATK, the enrichment ratio was not above 0.25. For PKSP, the enrichment ratio was not above 0.25. The result for DKPK reads not above 0.25. The result for DHES reads not above 0.25; that for EMYD, not above 0.25. The result for FAPP reads not above 0.25; that for KSTV, not above 0.25; that for DRPR, not above 0.25.

Take FPSN: the enrichment ratio is not above 0.25. The result for YRQT reads not above 0.25. As for VKAE, the enrichment ratio was determined as 1.52. The result for MVDL reads not above 0.25. In the case of YTHN it was not above 0.25; in that of TYPT, not above 0.25. In the case of GKDT it was not above 0.25; in that of VQRP, not above 0.25; in that of EKMH, not above 0.25. As to TYGF, the enrichment ratio is not above 0.25. As to RHSI, the enrichment ratio is not above 0.25. Consider MNFS, for which the enrichment ratio was not above 0.25. Regarding ILAW, the enrichment ratio was not above 0.25. The result for SPDP reads not above 0.25; that for LAVY, not above 0.25; that for MVFI, not above 0.25. As for RSGE, the enrichment ratio was not above 0.25. In the case of YWAK it was not above 0.25; in that of VAPY, not above 0.25; in that of NWFS, not above 0.25. The result for WQEL reads not above 0.25; that for MYKW, not above 0.25.

Take TTCS: the enrichment ratio turned out to be 18.7. WMMR: the enrichment ratio was not above 0.25. In the case of VEYH it was not above 0.25. With FNAP, the enrichment ratio is not above 0.25.

In the case of IVWG, the enrichment ratio was not above 0.25.

As for NLCY, the enrichment ratio was not above 0.25. Consider HTSD, for which the enrichment ratio is not above 0.25.

Turning to TQRV, the enrichment ratio was not above 0.25. For the variant MLCD, the enrichment ratio is not above 0.25. As for MHFM, the enrichment ratio was not above 0.25. For YLAS, the enrichment ratio was not above 0.25. In the case of MIAS, the enrichment ratio turned out to be 4.77. Regarding NAVG, the enrichment ratio is not above 0.25. In the case of WGRV it was not above 0.25; in that of VDFG, not above 0.25; in that of MTKT, not above 0.25. In the case of GDMI it was 0.38. In the case of GHLF it was not above 0.25; in that of PWHE, not above 0.25. Regarding HVWF, the enrichment ratio is not above 0.25.

For SEER, the enrichment ratio is not above 0.25. The result for MIRN reads not above 0.25; that for HCCP, not above 0.25. In the case of ANYA it was not above 0.25; in that of DNWK, not above 0.25; in that of IFFY, not above 0.25. In the case of RSLW it was not above 0.25. Consider SGPA, for which the enrichment ratio was not above 0.25.

For the variant SHIW, the enrichment ratio was not above 0.25. In the case of VHND it was not above 0.25; in that of SKQM, 1.77; in that of SEWY, not above 0.25.

DYIR: the enrichment ratio was not above 0.25. The result for DVYK reads not above 0.25. On to ASWA, for which the enrichment ratio was not above 0.25. For NTLG, the enrichment ratio was not above 0.25.
